Out of some 370,000 compounds screened, about 150 (0.041%) were called active. The inconclusive results got no clear call from the source; some entries with a clear call stand among them for comparison. The call rests on the fitted dose curve; in most records, active means well fitted inhibition curve with a large enough effect; inconclusive means small, poorly fitted or top-dose-only effect; inactive means flat fitted curve, though single readings scatter. Potencies of inconclusive entries are left out as doubtful fits.
Molecular target: Beta-lactamase (Escherichia coli (strain K12)) (UniProt P00811)
Assay: qHTS Inhibitors of AmpC Beta-Lactamase (assay with detergent); further: nearly all actives have a fitted effect of over 25% in size;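 on activity change, negative = inhibition: 0% = no-compound wells and -100% = no-enzyme wells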
Conditions: AmpC hydrolysis of nitrocefin, absorbance 480 nm, 0.01% Triton; activity change, negative = inhibition: at 114 µM (top of the series)
How it was run: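 20 mM phosphate pH 7.0 + 0.01% (detergent screen) or 0.0001% Triton X-100; 5.3 nM AmpC reagent; cpd preinc 15 min RT; nitrocefin (800 uM stock) to start; A480 q20 s × 4 min; Activity was normalised to no-enzyme and no-compound control wells.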
Potency means the concentration at half of the fitted maximal effect; tags describe the fitted curve by direction and shape.

Chain of UniProt P00811 (P00811 whole entry, looked up): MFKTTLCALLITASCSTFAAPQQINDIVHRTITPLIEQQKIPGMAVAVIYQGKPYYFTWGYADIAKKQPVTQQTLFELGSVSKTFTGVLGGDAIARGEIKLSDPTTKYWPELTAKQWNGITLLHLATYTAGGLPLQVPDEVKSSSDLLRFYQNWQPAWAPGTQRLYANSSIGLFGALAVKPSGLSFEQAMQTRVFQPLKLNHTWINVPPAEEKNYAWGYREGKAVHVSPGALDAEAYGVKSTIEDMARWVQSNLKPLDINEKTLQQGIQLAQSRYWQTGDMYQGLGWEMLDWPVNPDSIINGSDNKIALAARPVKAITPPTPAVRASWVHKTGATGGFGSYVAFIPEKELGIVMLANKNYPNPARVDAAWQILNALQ

Compound | activity change, negative = inhibition | Potency
O=C1CCC(=O)N1CCSC(=S)N1CCOCC1 | inactive: -1.44% | 
CCCN(C(=O)c1c(C)oc2ncnc(N3CCOCC3)c12)c1ccc(Cl)c(Cl)c1 | inactive: 4.33% | 
Cc1nc(NC(=O)c2ccccc2)sc1-c1csc(Nc2ccc(Cl)cc2Cl)n1 | inactive: -11.1% | 
Cc1ccc2c(CN3CCN(S(=O)(=O)c4ccc5c(c4)OCCO5)CC3)cc(=O)oc2c1C | inactive: -12.4% | 
Cc1c(Cl)cccc1NC(=O)CCCn1nc([N+](=O)[O-])cc1C | inactive: 0.349% | 
CNC(=O)[C@H](C)[C@@H]1C[C@@]1(C)[C@@H](NC(=O)OCc1ccccc1)c1ccccc1 |  | inconclusive [inhibitor, full curve, poor fit]
Cc1ccc([N+](=O)[O-])cc1NC(=O)C1CCN(S(C)(=O)=O)CC1 |  | inconclusive [inhibitor, partial curve]
CN(C(=O)c1ccc(Br)o1)C1(C)CCS(=O)(=O)C1 (configuration not stated) |  | inconclusive [inhibitor, single point]
CCC/C(=N\O)c1c[nH]c2ccccc12 |  | inconclusive [inhibitor, full curve, poor fit]
COc1cccc(C(c2sc3nc(C)nn3c2O)N2CCC3(CC2)OCCO3)c1 (configuration not stated) |  | inconclusive [inhibitor, partial curve]
Cc1ccc2nc(Cl)c(/C=N/NC(=O)[C@H]3C[C@@H]3c3ccccc3)cc2c1 | inactive: -7.11% | 
CC(=O)Oc1ccc2oc(/C=C/N(C)C)c([N+](=O)[O-])c2c1 |  | inconclusive [inhibitor, full curve]
COc1cccc(-n2c(SCC(=O)NCc3ccco3)nnc2-c2c[nH]c3ccccc23)c1 |  | inconclusive [inhibitor, full curve, poor fit]
Cc1ccc(SCCN2CCC(C(C)(C)C)CCC2=O)cc1 (configuration not stated) |  | inconclusive [inhibitor, full curve]
CCOCCOc1cccc(C(=O)NC(C)c2ccc3ccccc3c2)c1 (configuration not stated) |  | inconclusive [inhibitor, full curve, poor fit]
Cc1nc(C)c(-c2nnc(-c3ccc(C(C)(C)C)cc3)o2)cc1C(=O)NN |  | inconclusive [inhibitor, full curve, poor fit]
CSc1nc(N2CCN(C)CC2)c2ccccc2n1 | inactive: 7.85% | 
CCOc1ccc(CN(C(=O)c2cccs2)C2CCS(=O)(=O)C2)cc1 (configuration not stated) |  | inconclusive [inhibitor, partial curve, poor fit]
O=C(Nc1ccc([N+](=O)[O-])cc1)c1cn(-c2ccccc2)nc1-c1cc2ccccc2o1 |  | inconclusive [inhibitor, single point]
COc1cnn(-c2ccc(C)cc2)c(=O)c1Cl |  | inconclusive [inhibitor, full curve]
COc1ccc(OCCn2cncn2)cc1 |  | inconclusive [inhibitor, full curve]

Compound | activity change, negative = inhibition | Potency
O=C(C1CCCN(S(=O)(=O)c2ccccc2)C1)N1CCCCC1 (configuration not stated) |  | inconclusive [inhibitor, full curve]
C[C@@H](C(=O)Nc1ccc2ccccc2c1)[C@H]1C[C@]1(C)[C@H](NP(=O)(c1ccccc1)c1ccccc1)c1ccccc1 |  | inconclusive [inhibitor, full curve, poor fit]
CCn1cc(C(=O)N2CCCC2)c(=O)c2cc(S(=O)(=O)N(C)C)ccc21 |  | inconclusive [inhibitor, partial curve, poor fit]
Cc1[nH]cnc1C(=O)N/N=C/c1ccc([N+](=O)[O-])s1 |  | inconclusive [inhibitor, full curve, poor fit]
Cc1ccc(S[C@@H](CCN2CC[C@H](NC(=O)OCc3ccccc3)CCC2=O)c2ccccc2)cc1 |  | inconclusive [inhibitor, full curve, poor fit]
C/C(=N/OC(=O)c1c(F)cccc1F)c1nccs1 | inactive: 5.65% | 
COc1cc(C(=O)Nc2ccc3c(c2)N(C(=O)CCN(C)C)c2ccccc2CC3)cc(OC)c1OC | inactive: 2.77% | 
Cc1onc(-c2c(F)cccc2Cl)c1C(=O)Nc1cccc(S(=O)(=O)NCc2ccco2)c1 | inactive: 0.77% | 
O=S(=O)(NCc1ccncc1)c1ccc(Br)s1 |  | inconclusive [inhibitor, full curve, poor fit]
Cc1ccc(C)c(OCc2cc(C(=O)N3CCNC(=O)C3)no2)c1 | inactive: 7.06% | 
OCc1ccccc1OCCCOc1cccc2cccnc12 |  | inconclusive [inhibitor, single point]
Cc1cc(=O)n(CC(=O)NC(C)c2ccccc2)c2c1c(C)nn2-c1cccc(F)c1 (configuration not stated) |  | inconclusive [inhibitor, full curve, poor fit]
CC(C)N1C(=O)C2C(c3ccccc3O)NC(C)(C(=O)O)C2C1=O (configuration not stated) |  | inconclusive [inhibitor, full curve, poor fit]
Cc1nn(-c2ccccc2)c(C)c1C(=O)OCC(=O)N1c2ccccc2NC(=O)C1(C)C |  | inconclusive [inhibitor, full curve]
COc1ccccc1C(=O)NCCC(=O)NNC(=O)c1ccccc1O |  | inconclusive [inhibitor, full curve, poor fit]
O=C(CCCN1C(=O)c2cccc3cccc(c23)C1=O)N1CCN(c2ccccc2O)CC1 |  | inconclusive [inhibitor, full curve, poor fit]
COCCn1nnnc1CN1CCN2CCCC2C1 (configuration not stated) |  | inconclusive [inhibitor, single point]
COc1ccccc1N1CCN(/N=C\c2cccnc2)CC1 |  | inconclusive [inhibitor, full curve, poor fit]
COc1cc(/C=N/OCC(=O)NC2CCCCC2)ccc1OCc1ccccc1 | inactive: -4.51% | 
Cc1ccc(-c2cc(C(=O)NC3CCCC3)no2)cc1 |  | inconclusive [inhibitor, full curve, poor fit]
CC(=O)c1ccccn1 |  | inconclusive [inhibitor, full curve, poor fit]
